In PMC5892938 one finds binding signal (log2 fold change) data, which are given here for 37 sequences.

The other results are listed elsewhere or left out. At the low end of the ranking the order means little.

This experiment concerns the target GST-SBP-SLBP (stem-loop binding protein) (UniProt Q14493). In words: targeted RNA Bind-n-Seq.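 Note: DESeq read counts versus GST-SBP nonspecific binding control pulldown.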 Conditions: RBNS binding buffer: 25 mM Tris pH 7.5, 150 mM KCl, 3 mM MgCl2, 0.1% Tween, 0.5 mg/mL BSA, 1 mM DTT; 27 nM protein, 750 pM RNA pool; temperature not stated; high values mean tight binding.
Turning to “GGUCACGUCUCAAUCAACUCCUUAGAGGGGGGGAAAACCCCUUUACCCUCAAAAUCAACAGCUCGCAGUCAAG”, the binding signal (log2 fold change) worked out at 0.546.

Take “GGUCACGUCUCAAUCAACUCUCCAGAGGGGGGGAAAACCCCUUUACCCUCAUCAUCAACAGCUCGCAGUCAAG”: the binding signal (log2 fold change) is -0.392. The result for “GGUCACGUCUCAAUCAACUCAAUUUCAGGAGUUUUCUCCUGCUUAUUCAACAGCUCGCAGUCAAG” reads -0.0241; that for “GGUCACGUCUCAAUCAACUCAUUUUCAGGAGUUUCCUCCUGUAAUUUCAACAGCUCGCAGUCAAG”, 0.0847. Take “GGUCACGUCUCAAUCAACUCUACUUCCAGGGAAACCCCUGGUUUUUUCAACAGCUCGCAGUCAAG”: the binding signal (log2 fold change) was -0.0812.

Take “GGUCACGUCUCAAUCAACUCUUCGUCAGGAGUUUUCUCCUGCAUAUUCAACAGCUCGCAGUCAAG”: the binding signal (log2 fold change) turned out to be 0.133.

In the case of “GGUCACGUCUCAAUCAACUCUUCUCCCAGGGAAAACCCUGGUUUACUCAACAGCUCGCAGUCAAG”, the binding signal (log2 fold change) is 0.182. As to “GGUCACGUCUCAAUCAACUCUAUCUCAGGAGUUUACUCCUGUAAAUUCAACAGCUCGCAGUCAAG”, the binding signal (log2 fold change) was -0.0972.

As for “GGUCACGUCUCAAUCAACUCAAUUCCAGGAGUUUUCUCCUGUUUUCUCAACAGCUCGCAGUCAAG”, the binding signal (log2 fold change) is -0.00904. Under “GGUCACGUCUCAAUCAACUCAACUUCCAGGGAAAGCCCUGGUUUACUCAACAGCUCGCAGUCAAG” stands 0.296; under “GGUCACGUCUCAAUCAACUCAAAAGAGGGGGGGAAAACCCCUUUGCCCUCACUAUCAACAGCUCGCAGUCAAG”, 0.00436; under “GGUCACGUCUCAAUCAACUCAGUUUCAGGAGUUUACUCCUGUAUUUUCAACAGCUCGCAGUCAAG”, -0.0334. Take “GGUCACGUCUCAAUCAACUCUAUCUCCAGGGAAAACCCUGGUUUUCUCAACAGCUCGCAGUCAAG”: the binding signal (log2 fold change) came to 0.295. As to “GGUCACGUCUCAAUCAACUCAUUCUCCAGGGAAACCCCUGGUAUUCUCAACAGCUCGCAGUCAAG”, the binding signal (log2 fold change) came out at 0.127. The result for “GGUCACGUCUCAAUCAACUCAUUCCCCAGGGAAAACCCUGGCAUUUUCAACAGCUCGCAGUCAAG” reads -0.104. Turning to “GGUCACGUCUCAAUCAACUCACAAGAGGGGGGGAAAACCCCUUUGCCCUCACAUUCAACAGCUCGCAGUCAAG”, the binding signal (log2 fold change) amounted to 0.0955. Under “GGUCACGUCUCAAUCAACUCUUCGUCCAGGGAAAACCCUGGCAAAUUCAACAGCUCGCAGUCAAG” stands 0.0797; under “GGUCACGUCUCAAUCAACUCUUCCCCCAGGGAAACCCCUGGCUAAUUCAACAGCUCGCAGUCAAG”, 0.313.

As to “GGUCACGUCUCAAUCAACUCAAGUCCAGGAGUUUCCUCCUGCUAUUUCAACAGCUCGCAGUCAAG”, the binding signal (log2 fold change) worked out at 0.255. For the sequence “GGUCACGUCUCAAUCAACUCUUCUUCCAGGGAAACCCCUGGCUAUGUCAACAGCUCGCAGUCAAG”, the binding signal (log2 fold change) is -0.201.

Regarding “GGUCACGUCUCAAUCAACUCAUUUUCAGGAGUUUGCUCCUGCUUAUUCAACAGCUCGCAGUCAAG”, the binding signal (log2 fold change) turned out to be 0.0844. Consider “GGUCACGUCUCAAUCAACUCUUCCCCCAGGGAAACCCCUGGCAAUCUCAACAGCUCGCAGUCAAG”, for which the binding signal (log2 fold change) is 0.108. Take “GGUCACGUCUCAAUCAACUCAUUCCCCAGGGAAAUCCCUGGUAUACUCAACAGCUCGCAGUCAAG”: the binding signal (log2 fold change) was 0.0434. On to “GGUCACGUCUCAAUCAACUCUCUCGAGGGGGGGAAAACCCCUUUGCCCUCAUAAUCAACAGCUCGCAGUCAAG”, for which the binding signal (log2 fold change) is -0.27. The result for “GGUCACGUCUCAAUCAACUCAAUUCCCAGGGAAAGCCCUGGCUUAUUCAACAGCUCGCAGUCAAG” reads 0.218; that for “GGUCACGUCUCAAUCAACUCUAUCCCCAGGGAAAACCCUGGCUAUUUCAACAGCUCGCAGUCAAG”, -0.00107; that for “GGUCACGUCUCAAUCAACUCCAUAGAGGGGGGGAAAACCCCUUUACCCUCCAUCUCAACAGCUCGCAGUCAAG”, -0.232.

On to “GGUCACGUCUCAAUCAACUCUUUUCCCAGGGAAACCCCUGGCUAAUUCAACAGCUCGCAGUCAAG”, for which the binding signal (log2 fold change) was 0.167. As to “GGUCACGUCUCAAUCAACUCAACUCCCAGGGAAACCCCUGGUUUAUUCAACAGCUCGCAGUCAAG”, the binding signal (log2 fold change) came out at 0.0772. Consider “GGUCACGUCUCAAUCAACUCAAUUUCCAGGGAAAGCCCUGGUUUACUCAACAGCUCGCAGUCAAG”, for which the binding signal (log2 fold change) was -0.098. For the sequence “GGUCACGUCUCAAUCAACUCAUUCUCCAGGGAAAUCCCUGGUUUUUUCAACAGCUCGCAGUCAAG”, the binding signal (log2 fold change) is 0.0408.

Consider “GGUCACGUCUCAAUCAACUCAACUGAGGGGGGGAAAACCCCUUUACCCUCUACAUCAACAGCUCGCAGUCAAG”, for which the binding signal (log2 fold change) amounted to 0.0722. Take “GGUCACGUCUCAAUCAACUCAUUUCCAGGAGUUUGCUCCUGUAUUUUCAACAGCUCGCAGUCAAG”: the binding signal (log2 fold change) is -0.224. “GGUCACGUCUCAAUCAACUCUUCUCCCAGGGAAAUCCCUGGCAUUUUCAACAGCUCGCAGUCAAG”: the binding signal (log2 fold change) worked out at 0.0418. Under “GGUCACGUCUCAAUCAACUCAACUCCAGGAGUUUCCUCCUGCUAUGUCAACAGCUCGCAGUCAAG” stands 0.169; under “GGUCACGUCUCAAUCAACUCUUCCCCAGGAGUUUUCUCCUGCUUACUCAACAGCUCGCAGUCAAG”, 0.0919. Under “GGUCACGUCUCAAUCAACUCAAUUUCCAGGGAAACCCCUGGUAUAUUCAACAGCUCGCAGUCAAG” stands 0.0859.
